What is called % Inhibition is the relative decrease from the control value, in per cent.

Out of some 150,000 compounds screened, about 540 (0.36%) showed an effect of 50% or more. Some of the results follow.

The test relates to Plasmodium falciparum. Put plainly: Primary screen in NF54 nanoGlo assay, in single point, at 2uM, 72h; a lower Z score goes with more inhibition. The test is classed as functional, Erythrocyte. Particulars: timepoint 72 hour.
On to `O=C(CS(=O)(=O)c1ccccc1Cl)NC[C@H]1CCCO1`, for which the “% Inhibition” value is -9% and the Z score was determined as 1.46.
As to `CC(=O)N1CCN(C(=O)c2c(C(F)(F)F)nn(C(C)C)c2C)CC1`, the “% Inhibition” value is given as -4% and the Z score was 0.68.
Regarding `Cc1cccc(C(=O)NCCOCC(F)F)c1O`, the “% Inhibition” value was found to be 1% and the Z score is on record as -0.25.
As for `Clc1c2ccccc2c(-c2nc(-c3ccc(Br)cc3)c(-c3ccc(Br)cc3)[nH]2)c2ccccc12`, the “% Inhibition” value is -18% and the Z score stood at 1.95.
The like results for `Cc1ccc(OCCc2cnc3c(C#N)cnn3c2)c(Cl)c1` were, in that order, 7% and -0.99.
On to `CCNC(=O)N1CCC(CCOC)(NC(=O)NCc2ccccc2)CC1`, for which the “% Inhibition” value is listed as -1% and the Z score was 0.21.
`CC(C)CC[C@H]1CCCCN1C(=O)C(=O)Nc1cccnc1`: the “% Inhibition” value was found to be 7% and the Z score is -0.9.
On to `COc1ccc(CC(=O)NCCNC(=O)c2nc(CCn3ccc4ccccc43)no2)cc1`, for which the “% Inhibition” value is listed as -16% and the Z score is reported as 2.95.
Consider `COc1ccc(-c2nc(-c3nnn4c3CO[C@H](c3ccc(Cl)cc3)C4)no2)c(OC)c1`, for which the “% Inhibition” value was -8% and the Z score is reported as 1.48.
The like results for `O=C1C2C(c3cccs3)NC(Cc3ccccc3)(C(=O)O)C2C(=O)N1c1ccc(F)cc1` (stereo unspecified) were, in that order, -8% and 0.94.
As to `CN(C)c1ccc(C2(C3(c4ccc(N(C)C)cc4)C(=O)c4ccccc4C3=O)C(=O)c3ccccc3C2=O)cc1`, the “% Inhibition” value is -7% and the Z score turned out to be 0.98.
As to `Cc1nn(-c2cc(N3CCCC3)ncn2)c(C)c1CCC(=O)N1CCOCC1`, the “% Inhibition” value is given as -15% and the Z score is listed as 2.89.
`CNCCOc1cccc(-c2cccc(-c3cc[nH]n3)c2)c1`: the “% Inhibition” value is recorded as -9% and the Z score came to 1.36.
Turning to `Cc1nnc([C@@H](NC(=O)c2ccccc2F)C(N)=O)o1`, the “% Inhibition” value is -5% and the Z score was found to be 0.66.
The like results for `CS(=O)(=O)[C@H]1CCCN(C(=O)CCC2CC2)C1` were, in that order, -10% and 1.45.
As to `COC[C@@]1(CNC(=O)c2cc(C(N)=O)c[nH]2)CCCN1C(=O)OC(C)(C)C`, the “% Inhibition” value is listed as -19% and the Z score is reported as 3.32.
As for `CCN1CCC2CCC(C1)N2C(=O)C(=O)Nc1cccc(C)c1C#N` (stereo unspecified), the “% Inhibition” value is listed as -7% and the Z score stood at 1.05.
Turning to `CCn1ccc2cc(CCC(=O)NC3CCCC3)ccc21`, the “% Inhibition” value is -1% and the Z score is recorded as 0.08.
On to `COc1cc(Cl)ccc1-c1nc(-c2cccc(-c3ccn[nH]3)c2)no1`, for which the “% Inhibition” value is reported as -20% and the Z score stood at 2.41.
In the case of `CC(C)N(CCOCCO)c1cnc(C#N)cn1`, the “% Inhibition” value is given as -7% and the Z score is 0.66.
Regarding `O=C(c1cccn2c(=O)c3cc(Cl)ccc3nc12)N1CCN(Cc2ccccc2)CC1`, the “% Inhibition” value is given as -4% and the Z score is 0.46.
In the same order, the values of `O=C1c2ccccc2C(=O)N1CCn1ncccc1=O` are 1% and -0.18.
`O=C1CC2(CCN(Cc3ccc(C(F)(F)F)cc3)CC2)CN1`: the “% Inhibition” value is reported as 22% and the Z score was -2.86.
On to `Cc1cc(-c2ccc(C(=O)N3CCN(C)[C@@H](CCO)C3)cc2)nc2ccccc12`, for which the “% Inhibition” value is -4% and the Z score was 0.69.
On to `O=C(CN1C(=O)CCc2cc(Br)ccc21)NCCc1ccccc1`, for which the “% Inhibition” value is -7% and the Z score was found to be 0.9.
Take `Cc1cccc(S(=O)(=O)Nc2ccc(-n3nn[nH]c3=O)cc2)c1F`: the “% Inhibition” value was -12% and the Z score was determined as 1.09.
In the case of `c1ccc(-c2noc(-c3ccc(N4CCc5ccccc5C4)nn3)n2)cc1`, the “% Inhibition” value is listed as -15% and the Z score is reported as 2.15.
For `C[C@H](C#N)CNCc1c(CNC(=O)OC(C)(C)C)cnn1C`, the “% Inhibition” value came out at 8% and the Z score is recorded as -1.05.
Turning to `CC(=O)N[C@@H]1C=C[C@@H](c2c(C)nn(-c3ccc(C(C)(C)C)cc3)c2C)C1`, the “% Inhibition” value is 13% and the Z score is -1.55.
`CC(=O)N(C)c1cccc(NC(=O)NC2(C)Cc3ccccc3C2)c1`: the “% Inhibition” value is listed as -1% and the Z score was 0.1.
In the same order, the values of `C[C@H]1CCCCN1CC(=O)NCCC1=CCCCC1` are -16% and 2.06.
As for `c1ccc2c(-c3noc4c3CN(C[C@H]3CCCO3)CC4)cccc2c1`, the “% Inhibition” value was -2% and the Z score is on record as 0.39.
For the molecule `CCN1CC(=O)N(Cc2cnc3n2CCCC3)C1=O`, the “% Inhibition” value is reported as -10% and the Z score was determined as 0.98.
The like results for `O=C(Cn1cnnn1)N(CC(F)(F)F)c1cccc(Cl)c1` were, in that order, -2% and 0.45.
In the same order, the values of `CC(C)(C)n1cc(C(=O)N2CCc3ccc(C#N)cc32)nn1` are -2% and 0.4.
With `CC(C)(C)CC(=O)N[C@@H]1CC[C@H]2CCOc3ccccc3C(=O)N3CCN(Cc4ccc(C(F)(F)F)cc4)C[C@H]3C(=O)NC[C@H]1O2`, the “% Inhibition” value is listed as -6% and the Z score is listed as 1.18.
On to `CN(C(=O)[C@@H]1COCCN1CC1CCC1)C1CCC1`, for which the “% Inhibition” value is recorded as -6% and the Z score came to 0.75.
Turning to `CC(=O)Nc1ccc(S(=O)(=O)NCCc2cc(C)no2)cc1`, the “% Inhibition” value is on record as -3% and the Z score amounted to 0.53.
On to `CC1CCC(C)N1C(C)C(=O)NC(CO)Cc1c[nH]c2ccccc12` (stereo unspecified), for which the “% Inhibition” value is reported as -10% and the Z score is on record as 0.99.
`CC(=O)Nc1ccc(C(=O)Nc2cccnc2O)cn1`: the “% Inhibition” value was -21% and the Z score turned out to be 2.89.
Consider `N#Cc1ccc(N2CC=C(c3ccccc3F)C2)nc1`, for which the “% Inhibition” value is listed as -4% and the Z score is given as 0.53.
`CC1(C)CCC[C@@]1(O)CNc1cncc(C#N)n1`: the “% Inhibition” value is reported as -5% and the Z score came out at 0.7.
As to `Cc1cccc(-c2nn(-c3ccccc3)c3nc(OCC(=O)NCc4ccccc4C)cc(C)c23)c1`, the “% Inhibition” value was -5% and the Z score was 0.65.
Take `O=C(Nc1nc2c(s1)CN(S(=O)(=O)c1c(F)cccc1F)CC2)c1ccco1`: the “% Inhibition” value is -5% and the Z score is given as 0.7.
As to `O=C1NC(c2ccc3c(c2)OCO3)C(C(=O)c2ccc(F)cc2)C(O)(C(F)(F)F)N1` (stereo unspecified), the “% Inhibition” value was -1% and the Z score was 0.09.
Turning to `CCc1nnc(Cn2cc(-c3ccc(OC)c(OC)c3)nn2)s1`, the “% Inhibition” value is given as -10% and the Z score came out at 1.95.
For the molecule `O=C(O)c1cnc(C=Cc2cccc(Oc3ccccc3)c2)[nH]c1=O`, the “% Inhibition” value is -9% and the Z score is 0.85.
The like results for `Cc1cccc2c1CC(C)(C)N(C(=O)Cc1cnn(C)c1C)C2` were, in that order, -6% and 0.97.
Regarding `Cc1nc([C@H]2CCCN(Cc3ccc(C(=O)O)s3)C2)sc1C`, the “% Inhibition” value is given as -7% and the Z score is on record as 1.07.
With `Cc1nc([C@H](C)N(C)C(=O)c2ncc[nH]2)c(C)s1`, the “% Inhibition” value is listed as -14% and the Z score is 2.6.
Consider `Cc1ccc2cc(CN3CCN(c4cc(N)nc(N)n4)CC3)c(O)nc2c1`, for which the “% Inhibition” value is on record as -1% and the Z score amounted to 0.16.
Take `Cc1cnc(C)c(NC[C@H]2CCCN2C(C)C)n1`: the “% Inhibition” value was 6% and the Z score is reported as -1.17.
With `CC(C)N(C)S(=O)(=O)N(C)Cc1cccnc1`, the “% Inhibition” value is given as -10% and the Z score was determined as 1.01.

For the origin of these results see ChEMBL document CHEMBL4888484, “Replenishing the malaria drug discovery pipeline: Screening and hit evaluation of the MMV Hit Generation Library 1 (HGL1) against asexual blood stage Plasmodium falciparum ,using a nano luciferase reporter read-out” (2022).
